Laboratory results from ChEMBL document CHEMBL4888484, “Replenishing the malaria drug discovery pipeline: Screening and hit evaluation of the MMV Hit Generation Library 1 (HGL1) against asexual blood stage Plasmodium falciparum ,using a nano luciferase reporter read-out” (2022).
Out of some 150,000 compounds screened, about 540 (0.36%) showed an effect of 50% or more. This is one part of the list.

The molecules below were run on Plasmodium falciparum (assay: Primary screen in NF54 nanoGlo assay, in single point, at 2uM, 72h; a lower Z score goes with more inhibition). Conditions: timepoint 72 hour.
Format: functional, Erythrocyte

| Compound | % Inhibition | Z score |
| --- | --- | --- |
| COc1ccccc1N1CCN(C(=O)[C@H](CC(C)C)NC(=O)C2CCC(C)CC2)CC1 (stereo partly specified) | -5% | 0.52 |
| CC(=O)Nc1nc(C(=O)NC[C@H](C)N2CCCC2)cs1 | 8% | -1.39 |
| Cc1nc(NC(=O)N2CCN(C(C)C)CC2)nn1C | 4% | -0.51 |
| CC(C)[C@@H]1C[C@@H](CNS(=O)(=O)c2ccnn2C)c2ccccc21 | 10% | -1.25 |
| Cc1nc(C2(C)CCN(S(=O)(=O)c3cccc4nsnc34)CC2)no1 | -9% | 1.17 |
| C#CCN(C)Cc1nc(C2(O)CCN(C3COC3)CC2)cs1 | -3% | 0.47 |
| CC(C)(C)OC(=O)[C@@H](NC(=O)C1CCCO1)c1ccccc1 (stereo partly specified) | -4% | 0.82 |
| O=C(NCc1ccc(Cl)cc1Cl)C1CCN(S(=O)(=O)c2ccc3c(c2)CCC3)CC1 | 12% | -1.4 |
| CC1CN(C(C(=O)N2CCCC(n3cccn3)C2)C(C)C)CC(C)O1 (stereo unspecified) | -9% | 1.18 |
| Cc1ccc2c(c1)CN(CCC(=O)NC(C)c1ccc(F)cc1)CC(C)O2 (stereo unspecified) | -4% | 0.51 |
| O=C(NCCOCc1ccc(Cl)cc1)[C@@H]1NCCc2[nH]cnc21 | 4% | -0.83 |
| Cn1cc(N2C[C@@H](C(=O)NCC=Cc3cccnc3)CCC2=O)cn1 | -4% | 0.63 |
| CCC(C)C(OC)C(=O)Nc1cn(C)c(=O)n(C)c1=O (stereo unspecified) | -1% | 0.14 |
| COCC(C)NC(=O)C(C#N)C(=O)c1ccc(C)c(F)c1 (stereo unspecified) | -9% | 1.37 |
| Cc1cc(C(=O)NCCCn2ccnc2)no1 | -7% | 0.85 |
| CC(C)(C)[C@H](NCCC(=O)Nc1sccc1C#N)c1cccs1 | -3% | 0.29 |
| CCCN(C)c1nccn2c(=O)n(CC(=O)Nc3ccc(C)c(Cl)c3)nc12 | -11% | 1.07 |
| O=S(=O)(c1ccccc1)c1nc(NCc2ccccc2)sc1Cl | -6% | 0.56 |
| CCc1ccc(N2C(=O)CC[C@@]2(C)C(=O)NCc2ccccc2)cc1 | -1% | 0.16 |
| CC(C)c1nc(Cc2ccc(F)cc2Cl)n(C)n1 | -7% | 0.91 |
| O=C(c1c(F)cccc1F)N1C2CCC1CC(n1cncn1)C2 (stereo unspecified) | -2% | 0.2 |
| COc1ccc(-c2ccc(=O)n(CN3CCn4c(nnc4C(F)(F)F)C3)n2)cc1OC | -2% | 0.25 |

| Compound | % Inhibition | Z score |
| --- | --- | --- |
| O=C1C[C@H](c2ccccc2F)c2cnn(Cc3ccco3)c2N1 | 3% | -0.33 |
| Cc1cc(C)c(C(=O)N2CCN(c3ncc(F)cn3)C(=O)C2)c(C)c1 | 17% | -2.18 |
| CC(C)c1ncc(CN2CCOc3cc(F)ccc32)s1 | -11% | 1.43 |
| Cc1ccc(NC2=NC(N)=NC(C)(C)N2)cc1 | 0% | 0.07 |
| CCCCN(C)C(=O)[C@@H]1Cc2[nH]cnc2C2(CCCCC2)N1 | -11% | 1.55 |
| CCCc1cc(NCCn2cnc(C)c2C)nc(C)n1 | -6% | 0.75 |
| O=C(Nc1ccc(N2CCOCC2)nc1)C1CC2CCC1C2 (stereo unspecified) | -10% | 1.95 |
| Nc1nnc(CCc2ccccc2N)[nH]1 | 34% | -3.82 |
| CCc1ccccc1NC(=O)N1C[C@@H]2CCCN2c2ccccc21 | -10% | 1.37 |
| CCc1nc(-c2ccc(C(=O)Nc3ccc(F)cc3Cl)cc2)no1 | 8% | -0.82 |
| O=C(Cc1cccs1)Nc1nc(-c2ccccc2)cs1 | -12% | 2.51 |
| NC(=O)[C@@H]1Cc2ccccc2N1S(=O)(=O)c1ccc2c(c1)CCO2 | -6% | 0.72 |
| Cc1ccc(-c2ccc(OS(=O)(=O)c3c(C)noc3C)cc2)cc1 | -10% | 1.06 |
| CCN1CCn2cc(C(=O)NCc3cccs3)nc2C1=O | -10% | 1.32 |
| O=C(CNCc1cc2cccnc2n1S(=O)(=O)c1ccccc1)NC1CC1 | -6% | 0.81 |
| Cc1cc(NC(=O)C2CC(=O)OC2c2ccccc2)no1 (stereo unspecified) | 8% | -1.47 |
| Cc1noc(C)c1Cc1c(C(=O)NCCn2c(C)cnc2C2CC2)noc1C | -3% | 0.48 |
| CC1C(C(=O)O)CCN1C(=O)CCC1CCCCC1 (stereo unspecified) | 2% | -0.37 |
| FC(F)(F)c1cnc(N2CCC(N3CCCOCC3)CC2)s1 | -3% | 0.38 |
| CCc1cccc(NC(=O)CN2CCn3nc(C)nc3C2)c1 | -14% | 1.52 |
| Cc1cc(C(=O)N2CC[C@H](c3ccccc3)C2(C)C)ncn1 | -13% | 1.7 |
